Experimental data published in the supplement of paper PMC4604168 (melanoma cell lines).
The other results are listed elsewhere or left out. Single values are uncertain, as repeats are few or missing.

Experiments:
Test in all cases: cell count relative to DMSO control; melanoma cells; higher = more viable cells
Settings in all cases: library dose: standard library concentration; 72 h
SkMel28 = tested on: SkMel28
SkMel2 = tested on: SkMel2
SkMel30 = tested on: SkMel30
SkMel5 = tested on: SkMel5
UACC257 = tested on: UACC257
UACC62 = tested on: UACC62
WM115 = tested on: WM115
WM1716 = tested on: WM1716
WM1745 = tested on: WM1745
WM3526 = tested on: WM3526
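Also: cells treated in 1,536-well plates, then fixed and DAPI-stained, with nuclei counted from automated high-throughput microscope images.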

Compound | cell count (SkMel28) [%] | cell count (SkMel2) [%] | cell count (SkMel30) [%] | cell count (SkMel5) [%] | cell count (UACC257) [%] | cell count (UACC62) [%] | cell count (WM115) [%] | cell count (WM1716) [%] | cell count (WM1745) [%] | cell count (WM3526) [%]
Cc1cc(Nc2cc(N3CCN(C)CC3)nc(/C=C/c3ccccc3)n2)n[nH]1 + CNC(=O)c1cc(Oc2ccc(NC(=O)Nc3ccc(Cl)c(C(F)(F)F)c3)cc2)ccn1 [sorafenib] (first compound 0.2 µM, partner dose 2 µM) | 74.3 | 73.2 | 92.2 | 61.5 | 77.6 | 68 | 64.8 | 103 | 51.4 | 75.1
Cc1cn(-c2cc(NC(=O)c3ccc(C)c(Nc4nccc(-c5cccnc5)n4)c3)cc(C(F)(F)F)c2)cn1 [nilotinib] + O=C(CCCCCCC(=O)Nc1ccccc1)NO [vorinostat] (first compound 1 µM, partner dose 0.4 µM) | 73.2 | 68 | 76.9 | 72.6 | 72.5 | 65.3 | 118 | 114 | 98 | 79.5
Cc1cn(-c2cc(NC(=O)c3ccc(C)c(Nc4nccc(-c5cccnc5)n4)c3)cc(C(F)(F)F)c2)cn1 [nilotinib] + COCC[n+]1c2c(n(Cc3cnccn3)c1C)C(=O)c1ccccc1C2=O [YM155] (first compound 1 µM, partner dose 0.002 µM) | 57.5 | 49.3 | 88.6 | 44.3 | 20 | 61.1 | 66 | 70.7 | 108 | 56.6
CC(C)C[C@H](NC(=O)[C@H](Cc1ccccc1)NC(=O)c1cnccn1)B(O)O [Bortezomib] + CC1(C)NC(=O)N(c2ccc([N+](=O)[O-])c(C(F)(F)F)c2)C1=O [nilutamide] (first compound 0.005 µM, partner dose 5 µM) | 32.3 | 34 | 29.9 | 26.1 | 82.4 | 71.3 | 22.7 | 16.2 | 17.9 | 26.2
COc1ccc(C2=N[C@@H](c3ccc(Cl)cc3)[C@@H](c3ccc(Cl)cc3)N2C(=O)N2CCNC(=O)C2)c(OC(C)C)c1 [Nutlin-3] + COc1cc2c(Oc3ccc4[nH]c(C)cc4c3F)ncnc2cc1OCCCN1CCCC1 [cediranib] (first compound 0.5 µM, partner dose 2 µM) | 74 | 95.6 | 108 | 76.9 | 67.1 | 66.1 | 74.2 | 83.1 | 77 | 85.6
Cc1cn(-c2cc(NC(=O)c3ccc(C)c(Nc4nccc(-c5cccnc5)n4)c3)cc(C(F)(F)F)c2)cn1 [nilotinib] + O=C(Nc1cccc(Cl)c1)Nc1ncc(CCNc2ncnc3ccsc23)s1 [SNS314] (first compound 1 µM, partner dose 0.004 µM) | 47.8 | 63 | 92.7 | 63.4 | 62.7 | 83 | 79.4 | 50.4 | 66.7 | 90.7
COc1ccc(C2=N[C@@H](c3ccc(Cl)cc3)[C@@H](c3ccc(Cl)cc3)N2C(=O)N2CCNC(=O)C2)c(OC(C)C)c1 [Nutlin-3] + NC1(c2ccc(-c3nc4ccn5c(=O)[nH]nc5c4cc3-c3ccccc3)cc2)CCC1 [MK2206] (first compound 0.5 µM, partner dose 2 µM) | 57 | 77.7 | 85.4 | 68.4 | 86.5 | 70.2 | 71.7 | 71.7 | 68 | 101
CC(C)C[C@H](NC(=O)[C@H](Cc1ccccc1)NC(=O)c1cnccn1)B(O)O [Bortezomib] + Cc1nc(Nc2ncc(C(=O)Nc3c(C)cccc3Cl)s2)cc(N2CCN(CCO)CC2)n1 [dasatanib] (first compound 0.005 µM, partner dose 0.02 µM) | 30.5 | 43.6 | 35.1 | 34.4 | 84.6 | 47.1 | 32.5 | 19.2 | 15.5 | 19.7
COc1ccc(C2=N[C@@H](c3ccc(Cl)cc3)[C@@H](c3ccc(Cl)cc3)N2C(=O)N2CCNC(=O)C2)c(OC(C)C)c1 [Nutlin-3] + C=C(c1ccc(C(=O)O)cc1)c1cc2c(cc1C)C(C)(C)CCC2(C)C [Bexarotene] (first compound 0.5 µM, partner dose 10 µM) | 65.5 | 84.2 | 91.4 | 66.1 | 78.8 | 50.8 | 74.1 | 55.7 | 69.6 | 77
COc1ccc(C2=N[C@@H](c3ccc(Cl)cc3)[C@@H](c3ccc(Cl)cc3)N2C(=O)N2CCNC(=O)C2)c(OC(C)C)c1 [Nutlin-3] + CCN(CC)CCNC(=O)c1c(C)[nH]c(/C=C2\C(=O)Nc3ccc(F)cc32)c1C [sunitinib] (first compound 0.5 µM, partner dose 2 µM) | 27.9 | 65.8 | 72.4 | 42.1 | 80 | 40.5 | 38.4 | 73.6 | 39.4 | 52.2
Cc1cc(Nc2cc(N3CCN(C)CC3)nc(/C=C/c3ccccc3)n2)n[nH]1 + Cc1nc(Nc2ncc(C(=O)Nc3c(C)cccc3Cl)s2)cc(N2CCN(CCO)CC2)n1 [dasatanib] (first compound 0.2 µM, partner dose 0.02 µM) | 51.6 | 103 | 97.3 | 64.8 | 76.6 | 85.6 | 58.1 | 72.2 | 57.2 | 80.2
CC(C)C[C@H](NC(=O)[C@H](Cc1ccccc1)NC(=O)c1cnccn1)B(O)O [Bortezomib] + C=C(c1ccc(C(=O)O)cc1)c1cc2c(cc1C)C(C)(C)CCC2(C)C [Bexarotene] (first compound 0.005 µM, partner dose 10 µM) | 29 | 32.9 | 27.5 | 25.9 | 60.2 | 64.6 | 18.6 | 15.7 | 14.5 | 18.1
Cc1cc(Nc2cc(N3CCN(C)CC3)nc(/C=C/c3ccccc3)n2)n[nH]1 + C=C(c1ccc(C(=O)O)cc1)c1cc2c(cc1C)C(C)(C)CCC2(C)C [Bexarotene] (first compound 0.2 µM, partner dose 10 µM) | 63.7 | 74.8 | 99.5 | 70.9 | 72.8 | 79.2 | 68.1 | 81.7 | 73.5 | 77.4
Cc1cn(-c2cc(NC(=O)c3ccc(C)c(Nc4nccc(-c5cccnc5)n4)c3)cc(C(F)(F)F)c2)cn1 [nilotinib] + Nc1cccc2c1CN(C1CCC(=O)NC1=O)C2=O [lenalidomide] (first compound 1 µM, partner dose 5 µM) | 89.2 | 79.3 | 113 | 64.8 | 93.6 | 66.8 | 94.8 | 109 | 74 | 82.3
COc1ccc(C2=N[C@@H](c3ccc(Cl)cc3)[C@@H](c3ccc(Cl)cc3)N2C(=O)N2CCNC(=O)C2)c(OC(C)C)c1 [Nutlin-3] + CN(C)S(=O)(=O)c1ccc2c(c1)/C(=C/c1cc3c([nH]1)CCCC3)C(=O)N2 [SU6656] (first compound 0.5 µM, partner dose 2 µM) | 58 | 92.5 | 105 | 83.1 | 75.1 | 74.3 | 67.7 | 78.2 | 68.7 | 81.7
Cn1c(=O)n(-c2ccc(C(C)(C)C#N)cc2)c2c3cc(-c4cnc5ccccc5c4)ccc3ncc21 + O=C(O)c1ccc(-c2c[nH]c3ncc(-c4ccccc4)cc23)cc1C1CCCC1 [GSK650394] (first compound 0.02 µM, partner dose 0.8 µM) | 45.6 | 76 | 83.4 | 87.5 | 95.8 | 76.7 | 62.8 | 70.6 | 95.4 | 77.9
Cc1cc(Nc2cc(N3CCN(C)CC3)nc(/C=C/c3ccccc3)n2)n[nH]1 + C=CCNC1=C2C[C@@H](C)C[C@H](OC)[C@H](O)[C@@H](C)/C=C(\C)[C@H](OC(N)=O)[C@@H](OC)/C=C\C=C(/C)C(=O)NC(=CC1=O)C2=O [Tanespimycin] (first compound 0.2 µM, partner dose 0.01 µM) | 34.9 | 112 | 77.8 | 61 | 81.3 | 64.7 | 25.5 | 83.7 | 48.4 | 60.5
